# In PubChem BioAssay (Tox21):
# Inconclusive results, whose numbers are uncertain, are shown with a selection of clear calls. Potencies of inconclusive entries are left out as doubtful fits. Some structures have more than one record in an assay (separate samples or runs), and their calls can disagree. The source made the active and inactive calls. The call rests on the fitted dose curve; in most records, active means well fitted curve in the direction sought with a large enough effect in the repeat runs; inconclusive means weak or mixed curves; inactive means no such curve, though single readings can be large; an effect the other way counts as inactive or inconclusive.
# Test: qHTS RealTime-Glo MT Cell Viability Assay in HepG2 cells - 40 hour (AID 1224870); further: nearly all actives have a fitted effect of over 50% in size
# Settings: RealTime-Glo luminescence; series mostly up to 76.8 µM
# In short: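 HepG2 cells (600/well) mixed with RealTime-Glo MT reagent, settled 5 h at 37 C/5% CO2 before compound addition. Nonlytic NanoLuc luminescence from viable-cell prosubstrate reduction read repeatedly during 40 h treatment at 37 C.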
# Potency means the concentration at half of the fitted maximal effect; tags describe the fitted curve by direction and shape.
row,SMILES,Potency
1,CC(C)(c1ccccc1)c1ccc(O)cc1,"inconclusive [falling, single point]"
2,O=c1c(C2CC(c3ccc(-c4ccc(Br)cc4)cc3)Cc3ccccc32)c(O)sc2ccccc12 (configuration not stated),"inconclusive [falling, partial curve, poor fit]"
3,CCOC(=O)CC(SP(=S)(OC)OC)C(=O)OCC (configuration not stated),"inconclusive [phenotype inactive, single point]"
4,CCCCCCCCCCCCCCC(Br)C(=O)O (configuration not stated),inactive

# Test: A CellTox Green Cytotoxicity Assay to monitor cytotoxicity in HEK293 cells - 40 hour (AID 1224871); further: nearly all actives have a fitted effect of over 45% in size
# Settings: CellTox Green fluorescence; series mostly up to 76.8 µM
# In short: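 Dead-cell fluorescence measured kinetically: asymmetric cyanine dye, HEK293, 600 cells/well, 5 h settle, 23 nL cpd/DMSO, 37 C, reads 0–40 h every 8 h.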
row,SMILES,Potency
1,CCCCCCCCCCCCOS(=O)(=O)O,"inconclusive [activator, partial curve, poor fit]"
2,BrCC(Br)(Br)Br,"inconclusive [activator, single point]"
3,c1ccc(-c2ccccc2)cc1,"inconclusive [activator, single point]"
4,CSCCCN=C=S,"inconclusive [activator, single point]"
5,Nc1ccccc1-c1ccccc1,"inconclusive [activator, partial curve, poor fit]"
6,C[C@]12Cc3cn[nH]c3C[C@@H]1CC[C@@H]1[C@@H]2CC[C@@]2(C)[C@H]1CC[C@]2(C)O,inactive
7,CCOC(=O)CC(SP(=S)(OC)OC)C(=O)OCC (configuration not stated),"inconclusive [activator, partial curve, poor fit] and inactive"
8,Clc1ccc(C(Cl)(Cl)Cl)c(Cl)c1,"inconclusive [activator, single point]"
9,CC(C)(c1cc(Cl)c(O)c(Cl)c1)c1cc(Cl)c(O)c(Cl)c1,"inconclusive [activator, single point]"
10,O=[N+]([O-])c1cc([N+](=O)[O-])c2ccccc2c1,"inconclusive [activator, single point]"
11,CC(=O)O[C@H]1CC[C@@]2(C)C(=CC[C@@H]3[C@@H]2CC[C@]2(C)C(=O)CC[C@@H]32)C1,"inconclusive [activator, single point]"
12,O=[N+]([O-])c1ccc(Cl)c(Cl)c1Cl,active: 34.2 µM
13,O=c1nc(O)n(Cl)c(=O)n1Cl,inactive
